Laboratory results taken from the RNAGym collection of RNA variant scans (doi:10.1093/nar/gkz1192).
Read counts are not given, so values of variants with three or more changes are uncertain.

B1: CPEB3 Ribozyme (parent)
chain: UAACAGGGGGCCACAGCAGAAGCGUUCACGUCGCAGCCCCUGUCAGAUUCUGGUGAAUCUGCGAAUUCUGCUGUAUAUCUC

Variants of: B1
Assay: self-cleavage, relative activity (ratio to wild type); higher = more cleavage; in vitro, sequencing
Method in brief: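 After error-prone PCR and barcoding, CPEB3 ribozyme mutant libraries were transcribed with T7 RNA polymerase at 37°C for 5 hours, then given 15 min with DNase I before an EDTA stop, and they cleaved during both steps. Reverse transcription with template switching preceded Illumina sequencing. Relative activity divides a variant's cleaved/total read fraction by the unmutated ribozyme's. At least 5 reads were required per variant, and three batches were averaged.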

Variant | self-cleavage
G8C A28G A56G U72G | 0.04
G8A U31C U51C | 0.16
G8A A13G C29U A45U U67A U74A | 0.05
G9A U60C U80C | 0.19
G9A U26C C34U A47U A56G A75G | 0.05
G9A A13G A20U A47U U60C | 0.31
G7U U41C U48A A56G U72C U80C | 0.07
G8C C32U U58C U66C U76A | 0.06
G8U A35G U54G A64G G70A | 0.13
G9A C39A U80A | 0.14
G9A A15U A35U A65G | 0.05
G9A A56G A57G A64G | 0.13
G8U U31A A35G U51A U78A U80C | 0.05
G9A U26C U43A U60A G61A C62U | 0.13
G9A U69C U78A | 0.2
G8A U66C U72C | 0.07
G8U A21U A57G U72A | 0.1
G9A C11G A13G A21G U26A A57G U58C | 0.06
G8A A28G U76C U80C | 0.26
G7U G19U A28U | 0.2
G8U U43G A45U U60C | 0.09

Variant | self-cleavage
G7U U41C A65G | 0.16
G7U U26C U80C | 0.22
G9A C12U A13G C44A U72C | 0.1
G8U G19A A20G U41C U60C | 0.11
G9A U26C U31C G63A U74C U76C | 0.06
G9A U69A U76C | 0.08
G8C U49C G52A U72A | 0.05
G9A A13G A18G U66C U76C U78C | 0.07
G9A U25A U31A U80C | 0.06
G8A U26A C38A A57U G70C | 0.04
G8U A28C A57G | 0.05
G8U U25A U26C U51C U69C | 0.13
G8C C11G U26C A47G U66C U72G U78C | 0.02
G8A A18U G63A U66C U74C A77G | 0.04
G9A A20G U58C | 0.09
G8C U25A U48C A56G U67C | 0.06
G8A U43C G46C | 0.19
G8A A15U A20G G55U G73A | 0.11
G8A A20G U25A A65G | 0.05
G9A U31G U54A U74C | 0.07
G9C A21G A47G A77U | 0.07

Variant | self-cleavage
G8A A47G U49G | 0.26
G9A C23A U54C | 0.19
G7U U43C A65G U67C | 0.06
G8A G24A U31C A77G | 0.03
G7U G52C C59A U69C | 0.04
G8U A13G C17U A64G U69A | 0.11
G8A A21U U48C U51A A57G | 0.08
G8U A15G U31A | 0.03
G9A C32U A35U A47U | 0.12
G8A U25C C40U U49C U72C | 0.05
G8A A28U U41A C44U A45G | 0.06
G8U A57C U67A C68U U72C | 0.14
G8A G33C G42C U43C U49C G52U | 0.31
G8A A28U U41A U66G | 0.05
G8A U41C A56C A64U U66C U80C | 0.07
G7U U41A A45G A64U | 0.14
G8A A18G A21G | 0.31
G8A A13G G16A U60A | 0.17
G7U G36A U60C G61A U66C | 0.04
G9A A18U A56U C62U | 0.06
G8A U26A G53U | 0.06

Variant | self-cleavage
G8U A64U U76A | 0.04
G7U G10C A18G U80C | 0.33
G8A U54C U67C | 0.11
G8A U26C A35U C38A U76C | 0.08
G8A U41C U67C | 0.17
G8U U26C A28G | 0.1
G8A A18G U26A U41A A45G U67C U78C | 0.05
G8A G24C U26A A56G A57G U58C A75U | 0.13
G8A A20G U26C A45U U51A U67A | 0.05
G7U G10C A15U U72C U80C | 0.06
G9A A28C U49C U51A | 0.04
G8A C29U U60A | 0.18
G8A A15U A35G | 0.52
G8A A18U U31A A47G U67C U69C | 0.05
G9A G10C U25A U41A U43A A65G U72G | 0.13
G8A A18G U25C U58C | 0.1
G8U G9U U26A U41C U49C | 0.17
G8A C44U G52U A56G U74C U80C | 0.05
G8A A20U U31C U49C | 0.05
G8A U41C U49C | 0.21
